Experimental data reported in PubChem BioAssay AID1963576 (National Center for Advancing Translational Sciences (NCATS), 2024).
Screen size: about 46,000 compounds; about 60 (0.1%) were called active. Roughly 3% stayed inconclusive and do not appear here. Calls follow the shape of the dose curve; as a rule, active = well fitted inhibition curve with a large enough effect; inconclusive = small, poorly fitted or top-dose-only effect; inactive = no such curve, though single readings can be large or run the other way. The list shows a part of the results.

Test: Primary qHTS assay for Inhibitors of ovarian cancer metastasis using an organotypic tumor microenvironment (TME) model. Also: nearly all actives have a fitted effect of over 65% in size.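 As to activity change, negative = inhibition: plate controls were DMSO wells for no effect and tomatine positive control wells for full effect.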
Settings: SKOV3ip1-GFP adhesion/invasion on 3D omental model, fluorescence; series mostly up to 45.8 µM; activity change, negative = inhibition: at the top concentration
Procedure, shortened: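 Primary human omental fibroblast/mesothelial 3D culture pre-formed 48 h. SKOV3ip1-GFP cells added with compounds (0.36-46 umol/L), incubated 2 h RT/16 h 37 C, fixed; GFP cells quantified at 488/509 nm.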

Activity change, negative = inhibition, inactive:
CCc1cccc(C)c1NC(=O)CCCn1c(C)c2cnn(-c3ccccc3)c(=O)c2c1C -17%
CCn1c2ccccc2c2cc(CN3CCN(Cc4ccc(Cl)cc4)CC3)ccc21 -7.1%
CCOC(=O)c1ccc(NC(=O)CC2C(=O)N(c3cccc(OC)c3)C(=O)N2Cc2cccnc2)cc1 (stereo not given) 10.6%
CC(=O)c1ccc(NC(=O)C(C)n2nc(-c3ccccc3)ccc2=O)cc1 (stereo not given) 24.6%
CC(=O)Nc1cc(C(=O)NCc2ccc(F)cc2)ccc1S(=O)(=O)c1ccc(C)cc1 -19.1%
CCN(CC)CCCNC(=O)Cn1ncc2c3ccccc3n(Cc3ccccc3)c2c1=O -8.95%
CCc1nc(Nc2ccc(F)c(Cl)c2)c2c3c(sc2n1)CCCC3 3.58%
Cc1cc(C)n(C(C)CC(=O)Nc2cccc(C#N)c2)n1 (stereo not given) 0.887%
COc1ccc(-c2c(C)nn3c(-c4ccccc4)cc(C)nc23)cc1OC 8.69%
O=C(Cn1ncc2c3ccccc3n(Cc3cccc(Cl)c3)c2c1=O)NCCCc1ccccc1 -0.667%
Cc1cccc(C)c1NC(=O)Cn1cc(C(=O)c2ccco2)c2ccccc21 6.06%
Cc1cc(O)c(C(c2ccccc2)N2CCN(c3ccccc3)CC2)c(=O)n1Cc1ccco1 (stereo not given) -5.75%
Cc1ccc2oc(-c3ccc(Cl)cc3)c(O)c(=O)c2c1 2.11%
CC1CCN(S(=O)(=O)c2ccc3c(ccn3CC(=O)NCc3ccccc3F)c2)CC1 -21.8%
COc1cccc(CNC(=O)c2ccc3c(c2)nc2n3CCOC2)c1OC 17.5%
Cc1cccc(-n2nnc(-c3nc(-c4ccccc4)no3)c2N)c1C 2.51%
Cc1ccc(C(=O)Nc2nnc(S(=O)(=O)N(C)Cc3ccco3)s2)cc1 -7.78%
CCn1cc(C(=O)NCCc2ccc(OC)c(OC)c2)c(=O)c2cc(S(=O)(=O)N3CCOCC3)ccc21 -8.83%
Cc1cc(-c2ncc(CC(=O)Nc3ccc(-c4cnccn4)cn3)cc2C)ccn1 -0.502%
Cc1ccc(-c2noc(C(C)NC(=O)c3ccco3)n2)cc1 (stereo not given) -5.74%
COc1ccc(S(=O)(=O)c2c(SC)nn(CC(=O)Nc3ccc(C)c(Cl)c3)c2N)cc1 5.93%
O=C(Nc1cccc(C(F)(F)F)c1)c1cc(-c2ccc(Cl)cc2)on1 16.6%
Cc1cnc(C(=O)NCCc2ccc(S(=O)(=O)NC(=O)NC3CCCCC3)cc2)cn1 -12.4%
CCc1nn2c(=O)cc(COC(=O)c3cccc(NC(=O)c4ccccc4C)c3)nc2s1 0.972%
COc1ccc2c(CNC3CCCC3)c(C(=O)O)n(Cc3ccccc3C)c2c1 11.5%
CC(C)(C)C1CCc2nc(NC(=O)COc3ccccc3[N+](=O)[O-])sc2C1 (stereo not given) 3.63%
COCCCNC(=O)CSc1nc2cc3c(cc2c(=O)n1CCCCCC(=O)NCCc1ccc(OC)c(OC)c1)OCO3 6.39%
O=C(Nc1cc(C(F)(F)F)ccc1Cl)c1noc2c1CCCCC2 -13.9%
O=C(NCc1ccc(F)cc1)c1ccc2c(c1)N(Cc1c(F)cccc1Cl)C(=O)CS2 29.4%
CC1=C(c2ccc(C)cc2)S(=O)(=O)N(Cc2ccc(C(=O)NCc3ccccc3)cc2)C1=O 9.97%
COc1cccc(-n2ccn(CC(=O)Nc3ccccc3F)c(=O)c2=O)c1 3.58%
O=C(Nc1ccc(F)c(F)c1)c1cc(S(=O)(=O)N2CCc3ccccc32)ccc1F 2.37%
COc1ccc2c(c1)c(CC(=O)Nc1cccc(F)c1C)c(C)n2C(=O)c1ccc(Cl)cc1 0.0208%
CCc1ccccc1NC(=O)Cn1cc(C(=O)c2ccc(Cl)cc2)c(=O)c2ccc(C)nc21 -6.82%
COc1ccc(C2=C(C)C(N3CCC(C(=O)NCc4ccco4)CC3)=NS2(=O)=O)cc1 8.44%
Cc1ccc(CNS(=O)(=O)c2cc(C(=O)Nc3ccc(C(C)C)cc3)ccc2F)cc1 -19.3%
COc1ccc(-c2cc(C(=O)NCCc3ccc(Cl)cc3)[nH]n2)cc1 -7.45%
Cc1cccc(N2CCN(C(=O)COCc3cc(-c4ccc5c(c4)OCO5)on3)CC2)c1C 16.6%
CCOc1ccc(NC(=O)N2CCC(CN3CCC(C)CC3)CC2)cc1 7.07%
C[C@H]1[C@H](NC(=O)C(=NOC(C)(C)C(=O)O)c2csc(N)n2)C(=O)N1S(=O)(=O)O 9.91%
COc1cccc(-c2ccnc3c(-c4ccccc4)c(C)nn23)c1 7.81%
CCOC(=O)c1[nH]c2ccccc2c1NC(=O)c1cc(OC)cc(OC)c1 0.308%
Cc1ccc(CNc2nc3c(c(=O)n(C)c(=O)n3C)n2Cc2ccc(Cl)cc2)cc1 22.3%
Cc1ccc(CN(C(=O)c2ccc(F)cc2)c2ccccn2)o1 8.92%
CCn1c(=O)n(-c2ccc(F)c(Cl)c2)c(=O)c2sc3ccccc3c21 -9.23%
CN(C)c1ccc(NC(=O)CSc2nc(-c3ccco3)cc(C(F)(F)F)n2)cc1 17.2%
Cc1ccccc1C(=O)Oc1cc(-c2ccc3c(c2)OCO3)cc(=O)c2c(C)oc(C)c12 -5.66%
O=C(NCc1ccc(F)cc1)C1CCN(S(=O)(=O)c2ccc3c(c2)CCCN3C(=O)C2CCC2)CC1 2.14%
COc1ccccc1N1CCN(S(=O)(=O)c2c(C)sc3ncn(CC(=O)Nc4ccc(C(C)C)cc4)c(=O)c23)CC1 0.487%
Cc1ccc(N2CCN(C(=O)c3ccc(Nc4nc5ccccc5n5nnnc45)cc3)CC2)c(C)c1 1.06%
CCOc1cc(CNC(=O)c2ccc3c(c2)nc2n3CCCCC2)ccc1OC -1.62%
Cc1ccc(Cl)cc1NC(=O)c1cc2c(=O)n3cccc(C)c3nc2n1C -6.97%
O=C(NCc1ccc(F)cc1)c1cnc(N2CCOCC2)c2ccccc12 0.646%
Cc1ccc(C2=NC(c3ccc(F)cc3)=Nc3ccc(C)cc3N2)cc1 8.5%
Cc1cccc(Cn2c(=O)n(CCCCC(=O)NCc3ccc4c(c3)OCO4)c(=O)c3ccccc32)c1 17%
Cc1ccc(S(=O)(=O)N2CCN(Cc3ccccc3)CC2)c(C)c1NS(C)(=O)=O 0.594%
COc1ccc(CCNC(=O)Cn2c(=O)n(-c3ccc(OC)c(OC)c3)c(=O)c3ccccc32)cc1OC -1.77%
Cc1ccc(NC(=O)/C(C#N)=C/c2ccccc2Cl)cc1C -9.4%
COc1ccccc1OCCCCn1c(C2CC(=O)N(c3ccccc3Cl)C2)nc2ccccc21 (stereo not given) -16.4%
CC(=O)c1cccc(NC(=O)c2sc(-n3nc(C)c(CCC(C)C)c3C)nc2C)c1 7.44%
Cc1nc(-c2ccc(S(=O)(=O)N3CCN(c4cccc(Cl)c4)CC3)cc2)co1 -27.4%
COc1cc(NC(=O)Cn2c(=O)n(CC(=O)NCCc3ccc(OC)c(OC)c3)c(=O)c3sccc32)cc(OC)c1 -8.54%
CN(C)c1nc(Cc2ccc(NC(=O)c3ccc4ccccc4c3)cc2)nc(Cl)c1CC(=O)O -21.1%
COc1ccc(N2CC(NC(=O)Cc3cccs3)CC2=O)cc1 (stereo not given) -11.9%
COc1ccc(-n2nnnc2C2CCN(S(=O)(=O)c3ccc(F)cc3Cl)CC2)cc1 -22.6%
COc1cccc(Nc2sc(C(=O)c3ccc4c(c3)OCO4)c(N)c2S(=O)(=O)c2ccccc2)c1 -4.22%
CSc1ccc(CNC(=O)Cc2csc3ccccc23)cc1 2.05%
CC(=O)Nc1ccc(S(=O)(=O)NCC2CCC(C(=O)NCc3ccccc3Cl)CC2)cc1 (stereo not given) 33.4%
COc1ccc(C2=NC3(CCCCCC3)N(CC(=O)Nc3ccc(C)c(C)c3)C2=O)cc1 -8.07%
COc1ccc(CNC(=O)CN(c2cc(C(F)(F)F)ccc2Cl)S(C)(=O)=O)cc1 15.2%
CCn1c(C)c(C)c2cc(C(=O)NCc3ccc(N(C)C)cc3)ccc21 -1.89%
Cc1ccc2ncc(S(=O)(=O)c3ccccc3)c(N3CCCCC3C)c2c1 (stereo not given) -4.74%
Cc1ccccc1Nc1sc(C(=O)c2ccc(F)cc2)c(N)c1C(=O)NCCc1ccccc1 1.09%

outcome, inactive:
COc1cccc(-c2nnc(SCC(=O)N(C)c3ccccc3)o2)c1
Cc1ccc2c(=O)cc(C(=O)Nc3ccc(S(=O)(=O)N4CCCCC4C)cc3)oc2c1C (stereo not given)
CCOc1ccc(-c2nn(-c3ccc(F)cc3)c3c2cnc2ccc(F)cc23)cc1
Cc1ccc(C)c(NC(=O)CN2CCN(C3CCCCC3)C(=O)C2=O)c1
CCc1nc2c(cnn2-c2ccc(C)cc2)c(=O)n1-c1ccc(C)cc1
Cc1ccccc1NC(=O)CN1C(=O)C2(SCC(=O)N2c2ccc(F)cc2)c2ccccc21 (stereo not given)
Cc1cc(C)c2c(=O)cc(C(=O)Nc3sc4c(c3C#N)CCCC4)oc2c1
Cc1ccc(CNC(=O)CSCc2nc(-c3ccc(Cl)cc3)oc2C)cc1
Cc1ccccc1-c1nc2c3c(-c4ccccc4)c(-c4ccccc4)oc3ncn2n1
COC(=O)c1ccccc1NC(=O)COCc1cc(-c2cccs2)on1
O=C(COc1ccccc1Cl)N(Cc1ccco1)Cc1ccco1
COc1ccc(-n2c(=O)c3c4c(sc3n(CC(=O)N3CCCCC3C)c2=O)CCC4)c(OC)c1 (stereo not given)
Cc1ccc(S(=O)(=O)c2cnc(SCC(=O)Nc3ccccc3C(F)(F)F)[nH]c2=O)cc1C
Cc1cc(C)cc(NC(=O)C2CCCN(c3cnccn3)C2)c1 (stereo not given)
CCSc1nnc2c(n1)OC(c1ccc(OC)cc1OC)N(C(C)=O)c1ccccc1-2 (stereo not given)
COc1ccc(Cl)cc1NC(=O)CSc1nc2c([nH]c3ccccc32)c(=O)n1-c1ccccc1
O=C(NC1CCCC1)c1cnn(-c2ccc(F)cc2F)c1C1CCNCC1
CN(Cc1ccccc1)Cc1c(O)ccc2c(=O)c(-c3ccccc3)c(C(F)(F)F)oc12
CCN(C(=O)c1sc2cc(OC)ccc2c1Cl)c1ccccc1
Cc1ccc(NC(=O)CN2c3ccccc3S(=O)(=O)c3ccccc32)cc1F
CCN(CC)CCNC(=O)CN1C(=O)c2cccnc2Oc2ccc(C)cc21
CC(=O)NCCNc1nc2c(-c3cccc(C)c3)nnn2c2ccc(Cl)cc12
